# In PubChem BioAssay AID588342 (National Center for Advancing Translational Sciences (NCATS), 2011):
# About 25,000 (6.9%) of roughly 360,000 compounds were called active. This list was built around the results that the source calls inconclusive (neither active nor inactive); the mix of calls is not that of the screen. The call rests on the fitted dose curve; in most records, active means well fitted inhibition curve with a large enough effect; inconclusive means small, poorly fitted or top-dose-only effect; inactive means flat fitted curve, though single readings scatter. A potency beside an inconclusive call is a rough fit, not a confirmed value.
# Biological target: Luciferin 4-monooxygenase (Photinus pyralis) (UniProt P08659)
# Chain of UniProt P08659 (P08659 whole entry, looked up): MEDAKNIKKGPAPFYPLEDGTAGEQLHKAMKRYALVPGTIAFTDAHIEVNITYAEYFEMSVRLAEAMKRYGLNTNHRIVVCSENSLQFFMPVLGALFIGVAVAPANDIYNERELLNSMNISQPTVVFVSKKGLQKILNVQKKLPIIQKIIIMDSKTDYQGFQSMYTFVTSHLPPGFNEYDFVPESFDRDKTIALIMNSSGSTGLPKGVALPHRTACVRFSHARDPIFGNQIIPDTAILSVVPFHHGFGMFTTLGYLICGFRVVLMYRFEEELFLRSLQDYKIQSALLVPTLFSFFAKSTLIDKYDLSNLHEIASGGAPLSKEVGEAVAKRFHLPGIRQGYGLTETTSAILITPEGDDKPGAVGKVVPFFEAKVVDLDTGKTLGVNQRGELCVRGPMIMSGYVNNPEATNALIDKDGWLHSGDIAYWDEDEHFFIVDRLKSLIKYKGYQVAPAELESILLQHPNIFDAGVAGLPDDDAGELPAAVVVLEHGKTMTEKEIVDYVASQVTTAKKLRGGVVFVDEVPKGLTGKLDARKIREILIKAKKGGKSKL
# Test: qHTS profiling assay for firefly luciferase inhibitor/activator using purifed enzyme and Km concentrations of substrates (counterscreen for miR-21 project); further: nearly all actives have a fitted effect of over 55% in size
# Conditions: purified FLuc, luminescence inhibition; series mostly up to 57.5 µM
# In short: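 Purified P. pyralis luciferase, 10 nM final, with Km-level 10 uM D-luciferin and 10 uM ATP in 50 mM Tris acetate pH 7.5, 10 mM Mg acetate, 0.01% Tween-20, 0.05% BSA; 6-point qHTS titration about 60 µM downward; luminescence read.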
# Potency means the concentration at half of the fitted maximal effect; tags describe the fitted curve by direction and shape.
row,SMILES,Potency
1,Cc1nc2ccccc2n1CCc1nc2c3ccccc3nc(SCc3ccccc3F)n2n1,inactive
2,COc1cc(NC(=O)c2ccc3c(SCC(=O)O)c4c(nc3c2)CCCC4)cc(OC)c1OC,"inconclusive: 37.9 µM [inhibitor, partial curve, poor fit]"
3,CCCC(=O)NC(=S)Nc1cccc(NC(=O)c2ccccc2Cl)c1,"inconclusive: 16.9 µM [inhibitor, partial curve]"
4,CCCc1nnc(NC(=O)CSc2nnc3c4ccccc4n(CC)c3n2)s1,"inconclusive: 37.9 µM [inhibitor, partial curve, poor fit]"
5,COC(=O)c1cc(C(=O)c2cc(F)ccc2O)cn2c(=O)c3c(C)c(C)sc3nc12,"inconclusive: 7.57 µM [inhibitor, partial curve, poor fit]"
6,COc1cccc(CNC(=O)CCc2c(C)nn(-c3ccc(N4CCCC4)nn3)c2C)c1,inactive
7,CCCn1cnnc1CNC(=O)C1CCC(=O)N(CCCc2ccccc2)C1 (configuration not stated),inactive
8,CC(CCc1ccccc1)NC(=O)CSc1n[nH]c(-c2ccccc2Cl)n1 (configuration not stated),"inconclusive: 37.9 µM [inhibitor, partial curve, poor fit]"
9,CCCN1C(=O)/C(=C/c2ccc(C)o2)NC1=S,"inconclusive: 10.7 µM [inhibitor, partial curve, poor fit]"
10,CCN1C(=NCCCCO)N[C@@H](c2cccc(F)c2)C(C(=O)OC)=C1C,inactive
11,O=C(Nc1cccc2cccnc12)c1ccc(Cl)cc1Cl,"inconclusive: 23.9 µM [inhibitor, single point]"
12,COc1ccc(/C=N/N=C(\N)c2nonc2N)cc1OC,"inconclusive: 26.9 µM [inhibitor, single point]"
13,O=C(COC(=O)C1CC1)NCc1ccccc1Cl,"inconclusive: 19 µM [inhibitor, partial curve, poor fit]"
14,CCSc1nc2c(cnn2-c2ccccc2)c(=O)n1N,active: 13.5 µM
15,COCCNC(=S)N/N=C/c1c(C)[nH]c2ccccc12,"inconclusive: 26.9 µM [inhibitor, single point]"
16,CCOC(=O)c1cnc2c(ccc3ccccc32)c1NCCN(C)C,"inconclusive: 23.9 µM [inhibitor, partial curve, poor fit]"
17,CCCCCOc1ccc(C(=O)OC(C)C(=O)NCc2ccco2)cc1 (configuration not stated),"inconclusive: 21.3 µM [inhibitor, partial curve, poor fit]"
18,O=C(Cc1c(C(=O)O)[nH]c2ccccc12)Nc1ccc2c(c1)OCO2,"inconclusive: 23.9 µM [inhibitor, partial curve, poor fit]"
19,Cc1ccccc1NC(=O)c1c(C)oc2ccc(O)c(CN(C)Cc3ccccc3)c12,inactive
20,CC12CCC(=O)N1C(C(=O)Nc1nc3ccc(F)cc3s1)CS2 (configuration not stated),"inconclusive: 19 µM [inhibitor, partial curve, poor fit]"
21,S=C(Nc1ccc2c(c1)OCCO2)Nc1ccc2c(c1)OCO2,active: 16.9 µM

row,SMILES,Potency
1,CCc1ccc(N2CC(C(=O)Nc3nc4ccc(S(C)(=O)=O)cc4s3)CC2=O)cc1 (configuration not stated),"inconclusive: 37.9 µM [inhibitor, partial curve, poor fit]"
2,Cc1ccc(C(=O)NCC(=O)OCC(=O)c2ccc(Cl)s2)cc1,"inconclusive: 8.49 µM [inhibitor, partial curve, poor fit]"
3,O=[N+]([O-])c1ccc(-c2cnc[nH]2)cc1,"inconclusive: 30.1 µM [inhibitor, partial curve, poor fit]"
4,Cc1ccc(C)c(OCCCC(C)(C)C(=O)O)c1,"inconclusive: 23.9 µM [inhibitor, single point]"
5,Cc1ccc(S(=O)(=O)CCC(=O)c2ccc(F)cc2)cc1,inactive
6,C=C(C)C1CC=C(C)/C(=N/NC(=O)c2ccccc2[N+](=O)[O-])C1 (configuration not stated),"inconclusive: 23.9 µM [inhibitor, partial curve, poor fit]"
7,CC(=O)Oc1ccc(C(=O)Nc2ccc(C3(C#N)CCCC3)cc2)cc1,"inconclusive: 2.69 µM [inhibitor, full curve]"
8,Cc1cc(C)nc(Nc2n[nH]c(COc3ccc(Cl)cc3)n2)n1,inactive
9,O=C(CCNC(=O)c1ccccc1Cl)Nc1nc2ccccc2s1,"inconclusive: 19 µM [inhibitor, partial curve]"
10,CCCSc1nnc(NC(=O)c2cc(=O)c3ccccc3o2)s1,"inconclusive: 13.5 µM [inhibitor, partial curve]"
11,Cc1ccccc1OCCC(=O)Nc1ccc(Cl)cc1F,inactive
12,COc1cccc(N/C(SCc2cccc([N+](=O)[O-])c2)=C(/C#N)C(N)=O)c1,"inconclusive: 30.1 µM [inhibitor, partial curve, poor fit]"
13,CC12CCC(C/C1=N\N=C1\NC(=O)/C(=C\c3cccc(Br)c3)S1)C2(C)C (configuration not stated),"inconclusive: 23.9 µM [inhibitor, partial curve, poor fit]"
14,O=[N+]([O-])c1ccc(/C=C/C2=NN(c3ccccc3)C(c3ccco3)C2)o1 (configuration not stated),"inconclusive: 37.9 µM [inhibitor, single point]"
15,NC(=O)c1c(NC(=O)CS(=O)(=O)c2ccc(Cl)cc2)sc2c1CCCC2,"inconclusive: 26.9 µM [inhibitor, partial curve, poor fit]"
16,O=C(c1cccc(Cl)c1)N(Cc1cccc(F)c1)C1CCS(=O)(=O)C1 (configuration not stated),inactive
17,Cc1ccc(S(=O)(=O)NCc2ccncc2)cc1,"inconclusive: 4.78 µM [inhibitor, partial curve, poor fit]"
18,CCn1cc(C(=O)OCC(=O)c2cc(C)n(-c3ccccc3)c2C)c(=O)c2ccc(C)nc21,"inconclusive: 21.3 µM [inhibitor, single point]"
19,FC(F)(F)c1cccc(NCc2n[nH]c(=S)n2C2CCCCC2)c1,"inconclusive: 30.1 µM [inhibitor, partial curve, poor fit]"
20,CN(C)c1cccc(C(=O)Nc2ccc(N3CCOCC3)cc2)c1,active: 21.3 µM
21,Cc1ccc(CSc2ncn(-c3ccccc3)n2)cc1,"inconclusive: 21.3 µM [inhibitor, single point]"
